# In publication PMC4336329 (PLoS ONE, 2015):
# Hit rate of the full screen: of about 310,000 compounds, about 2,200 (0.71%) showed an effect of 50% or more. Effects have a minus sign here. The list shows a part of the results.
# Biological target: human ether-à-go-go-related gene (hERG) potassium channel (human, UniProt Q12809)
# Assay: primary screen, population patch clamp on CHO cells stably expressing hERG
# Chain of human ether-à-go-go-related gene (hERG) potassium channel (Q12809 whole entry, looked up): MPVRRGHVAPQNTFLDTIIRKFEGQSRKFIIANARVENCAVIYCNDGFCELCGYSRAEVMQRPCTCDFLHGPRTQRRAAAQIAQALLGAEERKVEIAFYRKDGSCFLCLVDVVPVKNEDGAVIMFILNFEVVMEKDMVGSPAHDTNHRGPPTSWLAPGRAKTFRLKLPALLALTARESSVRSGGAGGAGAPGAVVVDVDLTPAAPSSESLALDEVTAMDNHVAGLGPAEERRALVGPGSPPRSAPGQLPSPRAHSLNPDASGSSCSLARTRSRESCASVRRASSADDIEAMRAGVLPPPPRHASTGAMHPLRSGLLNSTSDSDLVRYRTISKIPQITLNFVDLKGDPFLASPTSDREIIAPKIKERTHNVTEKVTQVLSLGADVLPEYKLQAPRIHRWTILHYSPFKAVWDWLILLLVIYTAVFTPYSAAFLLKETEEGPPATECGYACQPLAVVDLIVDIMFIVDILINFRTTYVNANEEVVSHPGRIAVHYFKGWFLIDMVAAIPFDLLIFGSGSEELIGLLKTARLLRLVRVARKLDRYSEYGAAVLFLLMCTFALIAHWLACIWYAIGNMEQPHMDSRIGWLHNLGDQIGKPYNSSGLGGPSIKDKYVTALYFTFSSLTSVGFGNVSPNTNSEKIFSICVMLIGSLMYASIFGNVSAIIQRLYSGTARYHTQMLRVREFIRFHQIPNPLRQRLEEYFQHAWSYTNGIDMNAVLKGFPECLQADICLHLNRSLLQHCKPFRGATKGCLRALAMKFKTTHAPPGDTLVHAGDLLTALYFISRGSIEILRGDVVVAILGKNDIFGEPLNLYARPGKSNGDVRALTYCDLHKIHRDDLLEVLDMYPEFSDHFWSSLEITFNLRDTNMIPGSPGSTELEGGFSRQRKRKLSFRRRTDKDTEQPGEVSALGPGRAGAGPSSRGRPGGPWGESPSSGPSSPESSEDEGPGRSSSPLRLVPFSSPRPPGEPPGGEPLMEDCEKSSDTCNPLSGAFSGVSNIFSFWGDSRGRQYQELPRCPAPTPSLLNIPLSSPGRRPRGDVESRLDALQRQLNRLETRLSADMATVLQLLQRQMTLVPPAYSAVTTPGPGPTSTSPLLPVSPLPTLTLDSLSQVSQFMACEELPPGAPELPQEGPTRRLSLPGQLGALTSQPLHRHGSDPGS
row,Structure (SMILES),"hERG current change (%, negative = inhibition) at 1uM"
1,CN1CCN(c2ccc(NC(=S)NC(=O)c3cccc4c(Cl)cccc34)cc2)CC1,8.78%
2,CSc1ccc(Cl)c(C(=O)NC2CCCC2)c1,9.17%
3,O=C(CN1C(=O)C(c2ccccc2)Oc2cccnc21)NCc1ccccc1F (centres unmarked),13%
4,COC(=O)c1cccc(NC(=O)CSc2ncn[nH]2)c1,4.14%
5,CN(C)Cc1cc(C(C)(C)C)c(O)c(C(C)(C)C)c1,5.96%
6,COc1ccc(CCN(Cc2ccccn2)C(=S)Nc2cccc(SC)c2)cc1OC,-24.1%
7,NNC(=O)c1ccc(COc2ccc(Br)cc2)o1,11.1%
8,COC(=O)C1=C(COc2ccccc2)NC(=O)NC1c1ccc(Br)cc1 (centres unmarked),12%
9,O=C(Nc1cccc(S(=O)(=O)N2CCCC2)c1)c1cc(=O)[nH]c2ccccc12,3.03%
10,COc1ccc(CCN2CC(C(=O)Nc3ccc(S(C)(=O)=O)cc3)CC2=O)cc1OC (centres unmarked),5.63%
11,O=C(NC1CCS(=O)(=O)C1)OC1CCCCC1 (centres unmarked),4.72%
12,CCC(=O)CC(c1ccccc1)c1c([O-])c2ccccc2sc1=O.[Na+] (centres unmarked),13.3%
13,CC(C)(C)NC(=O)/C(=C\c1ccco1)NC(=O)c1ccco1,13.1%
14,O=C(NCC1CCCO1)c1cc(C(=O)C2CC2)c[nH]1 (centres unmarked),2.6%
15,CCSc1nnc(NC(=O)CSc2nc3c(c(=O)n2CCOC)SC(C)C3)s1 (centres unmarked),0.21%
16,Cc1nnc(SCC(=O)c2ccc([N+](=O)[O-])cc2)s1,-0.0441%
17,COc1cc(C2C(Oc3ccccc3C)C(=O)N2Cc2ccc(F)cc2)cc(OC)c1OC (centres unmarked),7.35%
18,CC(=O)NCCOc1cccc2cccnc12,13.9%
19,CC(C)(C)SCCNC(=O)/C=C/c1ccccc1,3.04%
20,COc1ccc(C(CC(=O)N2CCN(C)CC2)NC(=O)C(F)(F)F)cc1 (centres unmarked),12.7%
21,CC(C)N=C(N)N=C(N)Nc1ccc(Cl)cc1.Cl,7.28%
22,CNCCOc1ccccc1OC(C)C.O=C(O)C(=O)O,14%
23,CN(C)c1ccc(C(=O)N/N=C/C23CC[C@@H](O)CC2(O)CC[C@@H]2[C@@H]3CCC3(C)C(C4=CC(=O)OC4)CCC23O)cc1 (some centres unmarked),10.8%

row,Structure (SMILES),"hERG current change (%, negative = inhibition) at 1uM"
1,O=C(COC(=O)c1cc(-c2cccc(Br)c2)nc2ccccc12)NCC1CCCO1 (centres unmarked),15.4%
2,N#C/C(=C(/O)c1ccc([N+](=O)[O-])o1)c1nc2ccccc2[nH]1,13.3%
3,Cc1cccc(N(CC(O)CN2CCOCC2)S(=O)(=O)c2ccccc2)c1 (centres unmarked),11.2%
4,COc1cc(S(=O)(=O)NCCOC23CC4CC(CC(C4)C2)C3)c(OC)cc1Cl,12.3%
5,Cc1cc(S(=O)(=O)N2CCC3(CC2)OCCN3S(=O)(=O)c2cccs2)ccc1F,-5.99%
6,COc1ccccc1NC(=O)N(Cc1cc2cc(OC)c(OC)cc2[nH]c1=O)CC1CCCO1 (centres unmarked),7.64%
7,COc1ccc(C(=O)Nc2ccccc2C(=O)Nc2ccc(C(=O)O)cc2)cc1,15%
8,O=C(NC1CC1)C1CCN(C2CCN(C(=O)/C=C/c3cccc(F)c3F)CC2)CC1,6.42%
9,CC(C)(C)OC(=O)N1CCN(C(=O)c2cccnc2Cl)CC1,14.2%
10,Cc1cc(C)nc(N/N=C/c2ccc3c(c2)OCCO3)n1,14.9%
11,CC(C)NC(=O)CC(=O)NN=C1CCCCC1,9.96%
12,N/C(COc1ccc(F)cc1)=N\NC(=O)c1cccnc1Oc1ccccc1,-14.1%
13,CCC1(C)Cc2ccccc2-c2nc3n(c(=O)c21)CCS3 (centres unmarked),12%
14,CCCCCc1cc(=O)oc2c(C(CCN(CC)CC)c3cc(OC)c(OC)c(OC)c3)c(OC)cc(OC)c12 (centres unmarked),5.72%
15,CCN(c1ccccc1)S(=O)(=O)c1ccc(C(=O)Nc2nnc(COC)o2)cc1,10.7%
16,COc1ccccc1CNC(=O)COn1nnc2ccc(S(=O)(=O)N3CCOCC3)cc21,15.8%
17,COc1ccc(NC(=S)N2CCN(c3ccccn3)CC2)cc1,3.66%
18,Cc1cc(C)n(C(=O)CCCn2cc([N+](=O)[O-])cn2)n1,-3.73%
19,O=C(O)CSc1nnc(CNc2cccc(C(F)(F)F)c2)n1Cc1ccco1,9.85%
20,Cc1cc(C=O)c2c(c1)C=CC1(Oc3ccccc3C(=O)N1C)O2 (centres unmarked),9.99%
21,O=C(CN1C(=O)C2C3C=CC(C3)C2C1=O)Nc1ccc(F)cc1 (centres unmarked),11.2%
22,C/C(CC(=O)Nc1ccc(F)cc1)=N\NC(=O)Cc1csc(N)n1,16.1%
23,O=C(NN1C(=O)C2C(C1=O)C1C=CC2C12CC2)c1cccnc1 (centres unmarked),17.2%

row,Structure (SMILES),"hERG current change (%, negative = inhibition) at 1uM"
1,O=C(Nc1ccc(Cl)c(Cl)c1)c1ccc(Cl)c(Cl)c1,-4.94%
2,O=C(Cc1cccs1)NCc1cc(Cl)cc(Cl)c1,8.81%
3,O=C(Nc1cccc2ccccc12)/C(Cl)=C/c1ccccc1,3.37%
4,CN(C)S(=O)(=O)c1ccc(N2CCOCC2)c(C(=O)O)c1,6.17%
5,COc1ccc(-n2cnnc2SCC(=O)Nc2cc(S(=O)(=O)N3CCCCC3)ccc2C)cc1,-11%
6,CC(C)C(=O)Nc1ccc(NC(=O)c2ccc(COc3ccccc3)cc2)cc1,13%
7,CCCC(=O)Nc1nc2ccc(OCC)cc2s1,10.6%
8,O=C(CN1C(=O)NC2(CCCCCC2)C1=O)N1CCN(S(=O)(=O)c2ccc(Cl)cc2)CC1,0.438%
9,O=C(Nc1ccccc1N1CCCC1)C1=COCCO1,4.82%
10,C/C(=N\NC(=O)CCCCCNC(=O)c1ccccc1)c1ccccc1O,4.55%
11,COc1ccc(-c2ccc(OC)c([C@H]3[C@H]4C=CC[C@@H](C)[C@@H]4C(=O)N3Cc3ccccc3)c2)cc1C,12.6%
12,CCOc1cc(S(=O)(=O)NCc2ccc3c(c2)OCO3)c(C)cc1C,13.8%
13,CCCCC(=O)NC(Nc1cc(C)ccn1)(C(=O)OCC)C(F)(F)F (centres unmarked),6.65%
14,COc1ccc(-c2csc(Nc3ncccc3C)n2)cc1OC,-1.7%
15,COc1ccc(-c2nn(C)c(=O)c3ccccc23)cc1CNC(=O)NC1CCCCC1,3.84%
16,COc1ccccc1N1CCN(S(=O)(=O)c2ccc(NC(C)=O)cc2)CC1,7.93%
17,CC(=O)Nc1ccc(S(=O)(=O)N(C)c2ccc(O)cc2)cc1,2.34%
18,CCOc1ccc(N(C(=O)CNC(=O)c2cccs2)C(C(=O)NCC2CCCO2)c2ccc(OC)c(OC)c2)cc1 (centres unmarked),1.63%
19,CC1CN(C(=O)COC(=O)c2ccc(Cl)nc2)CC(C)O1 (centres unmarked),11.8%
20,CCCCc1ccc(NC(=S)NCc2ccccc2OC)cc1,14.1%
21,CCOC(=O)c1c(C)oc2ccc(OC(=O)N3CCOCC3)cc12,-3.52%
22,COc1cc(-c2nnc(NC(=O)c3ccco3)o2)cc(OC)c1OC,3.76%
23,CC(=O)c1ccccc1OCCCCN1CCCCC1.O=C(O)C(=O)O,-29.5%

row,Structure (SMILES),"hERG current change (%, negative = inhibition) at 1uM"
1,CCCCN1CC(=O)N2[C@H]3c4cc(Br)ccc4OC[C@@H]3[C@H](C(=O)OCC)[C@]2(C)C1=O,15.1%
2,CCc1nnc2cccc(Cl)n12,1.31%
3,CCNC(=O)CC(=O)Nc1ccccc1C(=O)O,8.16%
4,COc1cc(S(=O)(=O)NCC2OCCc3ccccc32)ccc1-n1cnnn1 (centres unmarked),-7.28%
5,CCOCc1nnc(NC(C)=O)s1,12.2%
6,Cc1nc(C(=O)NC2CCCCC2)sc1C1(C)CC(c2cccc([N+](=O)[O-])c2)=NO1 (centres unmarked),5.74%
7,CCOC(=O)C1CCN(C(=O)c2c(-c3c(F)cccc3Cl)noc2C)CC1,-1.92%
8,Cc1ccc(CSCCNC(=O)c2ccc(Cl)c(S(=O)(=O)N3CCOCC3)c2)cc1,-1.75%
9,COc1ccc(C(=O)COC(=O)/C=C/c2ccccc2)c(OC)c1,16.3%
10,COC(=O)c1ccccc1C(=O)c1cccc2ccccc12,10.3%
11,Cc1ccc(S(=O)(=O)CCC(=O)NCCN2C(=O)S/C(=C\c3ccccc3)C2=O)cc1,7.65%
12,COc1cc(Cl)c(C)cc1NC(=O)c1ccccc1NC(=O)CN1CCOCC1,-18.6%
13,Nc1ccc(S(=O)(=O)NCc2ccccn2)cc1,1.67%
14,CC(=O)Nc1ccc(NC2=C/C(=N/S(=O)(=O)c3cccs3)c3ccccc3C2=O)cc1,12.6%
15,CCOc1ccc(C(C)NC(=O)CCC(=O)O)cc1 (centres unmarked),2.27%
16,Cc1cc2n(n1)C(c1ccc(N(C)C)cc1)Nc1ccccc1-2 (centres unmarked),0.64%
17,COc1cccc(C(=O)Nc2ccc(NC(=O)C(C)(C)C)cn2)c1,7.91%
18,O=C(O)c1ccc(Cn2cc(Cl)cn2)cc1,15.9%
19,CC1(C)C=C(c2ccc(O)cc2)CC(C)(C)N1,12%
20,CC(=O)c1cc(NC(=O)c2cccc(C(F)(F)F)c2)c(=O)oc1C,8.48%
